# According to PubChem BioAssay AID1745853 (National Center for Advancing Translational Sciences (NCATS), 2022):
# The list shows a part of the results. The main result of the screen is listed elsewhere. These columns were measured beside it and carry no call.
# Legend:
# Assay in all cases: Primary Screen for Target Class Profiling of Small Molecule Inhibitors of Methyltransferases
# [1] = molecular target: Glycine N-methyltransferase (Homo sapiens) (UniProt Q14749); conditions: purified enzyme, MTase-Glo SAH luminescence; measured here: GNMT inhibition; at 40 µM; stronger effect = lower value
# In short: (§1)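 Each enzyme was reacted with SAM and its substrate, with compounds tested once at 40 uM; SAH formed was read by MTase-Glo luminescence.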
# [2] = molecular target: Guanidinoacetate N-methyltransferase (Homo sapiens) (UniProt Q14353); conditions: purified enzyme, MTase-Glo SAH luminescence; measured here: GAMT inhibition; at 40 µM; stronger effect = lower value
# In short: as §1
# [3] = molecular target: Histamine N-methyltransferase (Homo sapiens) (UniProt P50135); conditions: purified enzyme, MTase-Glo SAH luminescence; measured here: HNMT inhibition; at 40 µM; stronger effect = lower value
# In short: as §1
# [4] = molecular target: Nicotinamide N-methyltransferase (Homo sapiens) (UniProt P40261); conditions: purified enzyme, MTase-Glo SAH luminescence; measured here: NNMT inhibition; at 40 µM; stronger effect = lower value
# In short: as §1
# [5] = molecular target: Phenylethanolamine N-methyltransferase (Homo sapiens) (UniProt P11086); conditions: purified enzyme, MTase-Glo SAH luminescence; measured here: PNMT inhibition; at 40 µM; stronger effect = lower value
# In short: as §1
# % is set by controls: 0 for no effect and ±100 for the full control effect.
SMILES,"activity change, negative = inhibition [1] [%]","activity change, negative = inhibition [2] [%]","activity change, negative = inhibition [3] [%]","activity change, negative = inhibition [4] [%]","activity change, negative = inhibition [5] [%]"
CC1CCCCC1NC(=O)C1(C)Cn2c(cc3occc32)C(=O)N1Cc1cccc(Cl)c1 (configuration not stated),-9.69,5.39,-5.32,-9.7,-4.56
C=C(C)[C@@H]1CC=C(COC(=O)NC(=O)c2ncn3c(=O)n(C)nnc23)CC1,-10.4,-24.8,-5.2,-39.9,-15.3
CCCn1c(=O)c2ccc(C(=O)NCC(C)C)cc2n2c(SCC(=O)c3ccc(C)cc3)nnc12,6.75,0.799,8.2,5.52,3.23
Cc1ccc(C)c(N2CCN(CCN3C(=O)c4ccc(-c5ccco5)n4CC3(C)C(=O)NC3CCCCCC3)CC2)c1 (configuration not stated),-9.6,0.92,-10.7,-9.7,-6.23
Cc1ccc(NC(=O)N2CCn3cccc3C2Cc2ccccc2)c(C)c1 (configuration not stated),-1.39,0.894,-2.13,-3.16,-5.1
COc1cc2c(cc1CN1CCn3nc(C(O)CO)cc3C1)OCCO2 (configuration not stated),-3.34,-0.445,-0.527,-11.2,-15.7
O=C1[C@H]2CN(Cc3cccc(Cl)c3F)C[C@H]2C(=O)N1Cc1ccc2c(c1)OCO2,-9.19,-11.3,-4.39,-16.3,-13.5
CC1CCN(S(=O)(=O)c2ccc3c(ccn3CC(=O)NCc3ccco3)c2)CC1,2.01,6,6.94,4.77,4.25
CC(C)c1ccc(CN2CC(CNC(=O)c3cnn(C)c3)C3(C2)CN(c2ccccc2)C3)cc1 (configuration not stated),-6.59,-3.75,-1.23,-12,-6.63
C[S+](=O)([O-])N1CC2(CCCCN2Cc2ccc(Cl)cc2)Cc2ccccc21 (configuration not stated),0.873,-6.51,0.233,-1.06,-2.06
COc1ccc(C(=O)N2CCC23Cc2ccccc2NC3=O)cc1 (configuration not stated),-0.811,-0.442,2,-1.35,-1.88
CC1(C(=O)NC2CCCCC2)Cn2c(c(-n3cccc3)c3ccccc32)C(=O)N1Cc1cccnc1 (configuration not stated),0.805,0,3.91,-4.96,1.31
CNCc1cn(C[C@H]2O[C@@H](CC(=O)NCc3ccc(F)cc3)[C@H](O)[C@@H]2O)nn1,-7.77,-8.85,-4.93,-11.7,-9.47
COCCC1(NS(=O)(=O)N(C)C)CCN(S(C)(=O)=O)CC1,-1.79,0.653,0.894,-1.44,-0.981
Cc1cc(C)cc(N2C(=O)c3cc4ccccc4n3CC2(C)C(=O)NCCC(C)C)c1 (configuration not stated),2.67,0.769,5.07,0.913,0.612
CCNC(=O)NC1(CCOC)CCN(C(=O)c2ccoc2)CC1,-4.79,-7.57,-1.41,-11.5,-1.85
Cc1ccsc1CN1CCC2(CC1)Cc1ccccc1CNC2=O,-8.53,-9.41,-4.19,-13.3,-3.24
CCOC(=O)C(Cc1c[nH]c2ccccc12)NC(=O)c1ccccc1Br (configuration not stated),-1.76,0,9.23,8.54,2.76
CC1(C(=O)NC2CCCC2)COc2c(oc3ccccc23)C(=O)N1Cc1cccc(Br)c1 (configuration not stated),2.71,0.941,6.38,4.19,4.66
COc1ccccc1C(=O)N1CCCCCC1CN1CCc2ccccc2C1 (configuration not stated),-15,-10.1,-13.6,-5.16,-14.6

SMILES,"activity change, negative = inhibition [1] [%]","activity change, negative = inhibition [2] [%]","activity change, negative = inhibition [3] [%]","activity change, negative = inhibition [4] [%]","activity change, negative = inhibition [5] [%]"
C[C@H]1CC(=O)Nc2cccc(-c3cnn(C(C)(C)C)c3)c2N1,-2.11,-1.77,7.48,-12.4,2.54
Cc1ccc(-c2cccc(CN3CCCC(c4nc5ccc(C)cc5c(=O)[nH]4)C3)c2)c(C)c1 (configuration not stated),-4.98,-6.31,-6.52,-13.5,-7.15
C=C1C(=O)O[C@@H]2[C@H]1[C@H](O)C[C@]1(C)[C@@H](O)CC=C(C)[C@@H]21,7.06,5.63,11.3,-4.85,8.65
COC(=O)c1ncn2c1C(=O)N(Cc1ccc(C)cc1)C(C)(C(=O)NCCCOC(C)C)C2 (configuration not stated),-5.71,0,5.39,2.83,3.26
CCCn1c(=O)c2ccc(C(=O)NC(C)CC)cc2n2c(=O)n(CC(=O)N(C)c3ccccc3)nc12 (configuration not stated),2.49,3.9,7.54,-0.73,3.14
Cc1ccccc1Cn1nc2n(CC(C)C)c(=O)c3ccc(C(=O)NC(C)C)cc3n2c1=O,1.28,-1.23,1.84,-3.06,-1.44
CC[C@@H]1Cc2cc(O)ccc2C2=C1c1ccc(O)cc1C[C@H]2CC,-38.3,-21.4,-39.6,-22.2,-18.8
CCc1ccc(-c2cc3n(n2)CC(C)(C(=O)NC2CCCCC2)N(Cc2ccccc2)C3=O)cc1 (configuration not stated),5.6,3.97,5.39,8.1,0.819
CC(=O)O[C@H]1[C@H](Oc2ccccc2COC(=O)C2(O)C=CCCC2=O)O[C@H](CO)[C@@H](O)[C@@H]1O (some centres not stated),4.21,4.08,4.34,-8.18,0.072
CCOC(=O)c1cc2n(n1)CC(C)(C(=O)NCCCOC)N(c1cc(C)cc(C)c1)C2=O (configuration not stated),5.77,0,6.5,5.35,4.66
Nc1ncnc2c1ncn2[C@@H]1O[C@H](CO)C[C@H]1O,17.4,17.1,14.3,13.8,4.37
CC(C)(C)OC(=O)Nc1ccc(-c2cc(C(=O)NCCCCCCC(=O)NO)no2)cc1,-12.5,,-0.018,5.85,20.4
COc1ccc(CN2C[C@H]3CN(S(=O)(=O)c4ccc(C)cc4)CCN3C2=O)cc1,-11.5,-8.38,-6.58,-21.9,-12.8
NCCc1cccc(CN2CCCC(CO)(CC3CC3)C2)c1 (configuration not stated),-10.9,-8.06,-15.2,-14.7,-16.8
CC(C)CCN1CCC(O)(c2csc(CN(C)Cc3cccnc3)n2)CC1,-6.53,-4.64,-7.28,-7.55,5.77
CCOC(=O)Cc1ccc(NC(=O)N2Cc3c(sc4c3CCCC4)-n3cccc3C2c2ccccc2)cc1 (configuration not stated),-1.38,1.99,1.67,-1.68,2.51
CC1c2cccn2CCN1C(=O)Nc1ccc(Br)cc1 (configuration not stated),-8.45,3.95,-7.49,-6.55,-2.76
CC1CC(C)CN(S(=O)(=O)c2ccc3c(c2)oc(=O)n3CC(=O)N2CCN(C)CC2)C1 (configuration not stated),-6.83,-0.609,-4.49,1.07,-6.47
CN(C)c1nc2c(c(N3C[C@@H](CN4CCCC4)[C@@H](CO)C3)n1)CCCC2,-0.204,1.49,-76.3,-1.23,-0.777
CCc1cc2c(cc3n2CC(C)(C(=O)NC2CCC(C)CC2)N(CCN(CC)CC)C3=O)s1 (configuration not stated),2.94,4.58,-3.25,2.96,-2.35

SMILES,"activity change, negative = inhibition [1] [%]","activity change, negative = inhibition [2] [%]","activity change, negative = inhibition [3] [%]","activity change, negative = inhibition [4] [%]","activity change, negative = inhibition [5] [%]"
COCC(=O)N1CCC(C(=O)NC(C)c2ccc3c(c2)OCCCO3)CC1 (configuration not stated),-5.92,-10.5,-4.5,-17,-12.1
Cc1ccccc1C(=O)N(C)C1CCCc2ccccc21 (configuration not stated),-7.89,-0.519,-1.67,-13.4,-1.29
Cc1nccn1CCC1CCN(c2nccc(-c3ccccn3)n2)CC1,-8.12,2.54,-69.6,-11.3,0.818
COc1cccc(Cn2nc3n(Cc4ccccc4)c(=O)c4ccc(C(=O)NCC(C)C)cc4n3c2=O)c1,0.788,4.22,2.18,1.53,2.93
COc1ccc(N2CCN(C(=O)c3cccc(Nc4nc5ccccc5n5nnnc45)c3)CC2)cc1,-8.01,1.76,-8.17,0.965,-10.8
Nc1nc(Nc2ccccc2)nc2c1ncn2[C@@H]1O[C@H](CO)[C@@H](O)[C@H]1O,4.46,13.4,10.5,-3.15,3.26
O=S1(=O)CCN(CN2CCS(=O)(=O)NC2)CN1,,7.05,,-6.88,1.26
Cc1ccc(Cn2c(=O)c3ccccc3n3c(=O)n(CC(=O)c4cccc(Cl)c4)nc23)cc1,6.84,0.805,9.91,-1.24,3.79
O=[S+]1([O-])c2cccnc2OC(Cn2cccc2)CN1Cc1cccc(F)c1 (configuration not stated),-0.828,-1.52,0.112,-3.35,-1.97
O=C(c1cnc(C23CC4CC(CC(C4)C2)C3)[nH]c1=O)N1C[C@H]2CNC[C@H]2C1,-5.18,-10.4,-5.15,-14.4,-14.1
CC(=O)N1CCCN(c2ncnc3c2CN(c2ccc([N+](=O)[O-])cc2)C(=O)N(C)C3)CC1,-3.83,-5.68,-2.49,-8.21,-4.45
N#Cc1cccc(-c2ccnc(N[C@H]3CO[C@H]4[C@@H]3OC[C@H]4OC(=O)NC3CCCCC3)n2)c1,-1.24,-1,0.516,0.284,3.27
Cc1ccc(CCN2CCCCC23Cc2ccccc2CN([S+](C)(=O)[O-])C3)cc1 (configuration not stated),-6.73,-0.904,-10.7,-5.04,-4.91
COc1ccc(NC(=O)N[C@H]2[C@H](O)[C@@H](Sc3ccccc3)[C@@H]3OC[C@H]2O3)cc1,-7.39,-9.56,-3.43,-15.5,-7.57
CSCC(=O)N1C[C@@H](NC(=O)NC(C)C)C[C@H]1C(=O)N[C@H](Cc1c[nH]c2ccccc12)C(N)=O,-3.78,-2.38,0.883,-1.56,-3.43
CCOc1ccc(CNC(=O)Cn2ccc3cc(S(=O)(=O)N4CCCCC4)ccc32)cc1,0.51,0,-1.76,-4.88,-3.42
Cn1nc(-c2ccc(C(F)(F)F)cc2)nc2c(=O)n(C)c(=O)nc1-2,-94.3,-97.1,-86.4,-79.1,-26.6
Cc1cccc(CN2CC(=O)N(Cc3ccc(F)cc3)c3ccccc3S2(=O)=O)c1,8.33,-0.495,15.6,-8.47,0.597
Nc1nc2c(s1)CCN(Cc1ccc(Cl)cc1)CC2,3.9,3.86,-26,-20.1,-8.77
COc1ccc(Cn2c(=O)c3ccccc3n3c(-c4ccc(OC)c(OC)c4)nnc23)cc1,-2.37,0,2.77,4.84,-0.682
